According to the supplement of paper PMC12217912:
The list shows a part of the results. Sequences were assembled here from the parent chain. Values near 0.05 are background.

B1: TEV protease; numbered along this chain (parent)
chain: MGESLFKGPRDYNPISSSICHLTNESDGHTTSLYGIGFGPFIITNKHLFRRNNGTLVVQSLHGVFKVKDTTTLQQHLVDGRDMIIIRMPKDFPPFPQKLKFREPQREERICLVTTNFQTKSMSSMVSDTSCTFPSGDGIFWKHWIQTKDGQCGSPLVSTRDGFIVGIHSASNFTNTNNYFTSVPKNFMELLTNQEAQQWVSGWRLNADSVLWGGHKVFMVKPEEPFQPVKEATQL
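Note: Bxb1 expression induced with 0.2% (w/v) L-rhamnose at OD600 near 0.5, cultures sampled hourly, flipped fraction per protease–substrate barcode pair counted by paired-end Illumina sequencing.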

Variants of: B1
Experiment: raw area under fraction-flipped curve 0-4 h after induction (AUC4h, not background-subtracted), DNA-recorder readout of cleavage of the substrate (dimensionless); higher = more cleavage of the substrate by the protease variant
Details: temperature: 34 °C; time window: 0-4 h after rhamnose induction
Description: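 In vivo DNA recorder in E. coli TOP10(DE3) ΔrhaA at 34 °C. Each TEVp single-site mutant (parent TEVp 0) is paired with a single-site variant of the 7-mer TEVs (canonical ENLYFQ|S). The substrate sits between flexible linkers in a Bxb1-sfGFP-TEVs-SsrA fusion, so cleavage stabilises Bxb1 and speeds flipping of a recombination array, read by NGS. The value is the raw area under the fraction-flipped curve over 0-4 h after rhamnose induction (AUC4h), with ≥20 reads per time point. It is not background-subtracted; inactive controls average about 0.047.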
For E195Q, the “area with substrate ENLDFQS” value was 0.0442, the “area with substrate ENLEFQS” value was 0.064 and the “area with substrate ENLHFQS” value was 0.0652. For the same variant, the “area with substrate ENLKFQS” value was 0.0829, the “area with substrate ENLNFQS” value was 0.0653 and the “area with substrate ENLQFQS” value was 0.112. For the same variant, the “area with substrate ENLRFQS” value was 0.0699. With V126D the “area with substrate ENLEFQS” value was 0.0648, the “area with substrate ENLFFQS” value was 0.099 and the “area with substrate ENLGFQS” value was 0.0537. For the same variant, the “area with substrate ENLHFQS” value was 0.0797, the “area with substrate ENLKFQS” value was 0.0749 and the “area with substrate ENLNFQS” value was 0.0644. For the same variant, the “area with substrate ENLPFQS” value was 0.0341, the “area with substrate ENLQFQS” value was 0.0833 and the “area with substrate ENLRFQS” value was 0.0642. For N53P, the “area with substrate ENLEFQS” value was 0.0689, the “area with substrate ENLFFQS” value was 0.0591 and the “area with substrate ENLGFQS” value was 0.0836. For the same variant, the “area with substrate ENLHFQS” value was 0.0752, the “area with substrate ENLIFQS” value was 0.0763 and the “area with substrate ENLKFQS” value was 0.0667. The “area with substrate ENLMFQS” value was 0.0499, the “area with substrate ENLNFQS” value was 0.0705 and the “area with substrate ENLPFQS” value was 0.0364. For the same variant, the “area with substrate ENLQFQS” value was 0.0442, the “area with substrate ENLRFQS” value was 0.0553 and the “area with substrate ENLSFQS” value was 0.0553. For the same variant, the “area with substrate ENLWFQS” value was 0.0556. With A196P the “area with substrate ENLEFQS” value was 0.0512, the “area with substrate ENLFFQS” value was 0.0743 and the “area with substrate ENLGFQS” value was 0.0589. For the same variant, the “area with substrate ENLHFQS” value was 0.0469, the “area with substrate ENLIFQS” value was 0.0802 and the “area with substrate ENLKFQS” value was 0.0374. For the same variant, the “area with substrate ENLLFQS” value was 0.0875, the “area with substrate ENLMFQS” value was 0.0758 and the “area with substrate ENLNFQS” value was 0.0664. The “area with substrate ENLPFQS” value was 0.0584, the “area with substrate ENLQFQS” value was 0.066 and the “area with substrate ENLSFQS” value was 0.063. The “area with substrate ENLVFQS” value was 0.0683 and the “area with substrate ENLWFQS” value was 0.0778. In the case of A196C, the “area with substrate ENLDFQS” value is reported as 0.0613, the “area with substrate ENLHFQS” value is reported as 0.0643 and the “area with substrate ENLRFQS” value is reported as 0.0713. With E189Q the “area with substrate ENLDFQS” value was 0.062, the “area with substrate ENLEFQS” value was 0.0597 and the “area with substrate ENLGFQS” value was 0.0717. For the same variant, the “area with substrate ENLHFQS” value was 0.0749, the “area with substrate ENLMFQS” value was 0.0837 and the “area with substrate ENLPFQS” value was 0.0652. For the same variant, the “area with substrate ENLQFQS” value was 0.0809 and the “area with substrate ENLRFQS” value was 0.0886. For T233I, the “area with substrate ENLDFQS” value was 0.0574, the “area with substrate ENLEFQS” value was 0.0938 and the “area with substrate ENLFFQS” value was 0.0762. For the same variant, the “area with substrate ENLNFQS” value was 0.0655 and the “area with substrate ENLQFQS” value was 0.0733. For T233A, the “area with substrate ENLGFQS” value was 0.039, the “area with substrate ENLLFQS” value was 0.105 and the “area with substrate ENLNFQS” value was 0.0601. The “area with substrate ENLPFQS” value was 0.0424 and the “area with substrate ENLQFQS” value was 0.0649. For L33T, the “area with substrate ENLEFQS” value was 0.0675, the “area with substrate ENLFFQS” value was 0.072 and the “area with substrate ENLHFQS” value was 0.0739. The “area with substrate ENLKFQS” value was 0.0706, the “area with substrate ENLNFQS” value was 0.051 and the “area with substrate ENLPFQS” value was 0.0536. The “area with substrate ENLTFQS” value was 0.0762. For N172D, the “area with substrate ENLDFQS” value was 0.0578, the “area with substrate ENLFFQS” value was 0.0703 and the “area with substrate ENLKFQS” value was 0.0574. The “area with substrate ENLMFQS” value was 0.0802, the “area with substrate ENLNFQS” value was 0.0691 and the “area with substrate ENLPFQS” value was 0.0715. The “area with substrate ENLQFQS” value was 0.0613, the “area with substrate ENLRFQS” value was 0.0653 and the “area with substrate ENLWFQS” value was 0.0594.
